Some of the results follow. The data describe in vitro nicking of single-stranded DNA by Rep domains for 1 h at 37 °C with 3 µM enzyme; only the middle of the 90-letter strands is printed. Numbers give uncut DNA relative to the enzyme-free pool, as log2; the lower, the more was cut; hits are not called. Counts are relative to all reads, so uncut sequences can rise above 0 when many others are cut.
Tests used:
Experiment in all cases: uncleaved DNA left, log2 of reads against the no-enzyme library (log2 ratio); higher = less cleavage (more negative = more Rep cleavage of the k-mer); sequences stand for … in CTCGTCCG…ACCGGAGA
[1] = tested on: T1, Rep nickase domain of Muscovy duck circovirus
T1 sequence (residues 1-111, tag not shown): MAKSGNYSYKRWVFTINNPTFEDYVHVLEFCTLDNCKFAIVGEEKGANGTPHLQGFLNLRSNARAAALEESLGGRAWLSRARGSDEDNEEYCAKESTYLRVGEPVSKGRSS
Description: (§1)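 A pool of 90-nt single-stranded DNAs with seven random bases just before the constant AC of the nick site (name = the seven bases) was cut by 3 µM recombinant His6-SUMO-tagged Rep nickase domain (300 nM DNA, 50 mM HEPES pH 8.0, 50 mM NaCl, 1 mM MnCl2, 1 h, 37 °C, three replicates). Uncut DNA was amplified and sequenced.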

[2] = tested on: T2, Rep nickase domain of banana bunchy top virus
T2 sequence (residues 1-94, tag not shown): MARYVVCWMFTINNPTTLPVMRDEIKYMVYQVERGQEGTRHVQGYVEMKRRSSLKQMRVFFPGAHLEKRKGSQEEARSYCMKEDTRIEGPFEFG
Description: as §1

[3] = tested on: T3, Rep nickase domain of cabbage leaf curl virus
T3 sequence (residues 1-116, tag not shown): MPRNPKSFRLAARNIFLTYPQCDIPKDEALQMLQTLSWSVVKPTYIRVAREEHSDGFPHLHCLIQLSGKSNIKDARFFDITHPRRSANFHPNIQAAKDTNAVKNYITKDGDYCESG
Description: as §1

[4] = tested on: T4, Rep nickase domain of chickpea chlorotic dwarf virus
T4 sequence (residues 1-124, tag not shown): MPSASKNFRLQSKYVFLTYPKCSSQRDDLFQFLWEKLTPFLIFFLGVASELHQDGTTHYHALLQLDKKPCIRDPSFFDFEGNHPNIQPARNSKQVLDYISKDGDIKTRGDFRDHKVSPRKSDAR
Description: as §1

[5] = tested on: T5, Rep nickase domain of faba bean necrotic yellows virus
T5 sequence (residues 1-98, tag not shown): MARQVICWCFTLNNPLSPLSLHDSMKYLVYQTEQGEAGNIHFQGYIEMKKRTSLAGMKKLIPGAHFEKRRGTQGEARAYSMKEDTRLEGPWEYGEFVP
Description: as §1

[6] = tested on: T6, Rep nickase domain of maize striate mosaic virus
T6 sequence (residues 1-117, tag not shown): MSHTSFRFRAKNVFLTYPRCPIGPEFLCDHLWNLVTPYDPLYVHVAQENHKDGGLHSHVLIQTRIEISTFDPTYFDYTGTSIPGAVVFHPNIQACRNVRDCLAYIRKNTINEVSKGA
Description: as §1

[7] = tested on: T7, Rep nickase domain of porcine circovirus 2
T7 sequence (residues 2-116, tag not shown): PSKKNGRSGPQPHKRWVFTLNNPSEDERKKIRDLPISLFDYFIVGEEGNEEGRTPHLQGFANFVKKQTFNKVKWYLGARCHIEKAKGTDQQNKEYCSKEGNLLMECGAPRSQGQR
Description: as §1

[8] = tested on: T8, Rep nickase domain of tomato yellow leaf curl virus
T8 sequence (residues 1-136, tag not shown): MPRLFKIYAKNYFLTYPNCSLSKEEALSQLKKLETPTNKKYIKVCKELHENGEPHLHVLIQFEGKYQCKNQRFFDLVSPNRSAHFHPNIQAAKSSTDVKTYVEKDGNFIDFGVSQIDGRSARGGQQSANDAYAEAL
Description: as §1

[9] = tested on: T9, Rep nickase domain of wheat dwarf virus
T9 sequence (residues 1-137, tag not shown): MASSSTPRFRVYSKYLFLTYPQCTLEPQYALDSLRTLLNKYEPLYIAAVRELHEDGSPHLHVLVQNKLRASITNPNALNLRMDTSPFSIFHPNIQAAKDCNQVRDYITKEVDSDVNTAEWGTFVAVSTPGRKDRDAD
Description: as §1

Row | Sequence | uncleaved DNA left (log2) [1] | uncleaved DNA left (log2) [2] | uncleaved DNA left (log2) [3] | uncleaved DNA left (log2) [4] | uncleaved DNA left (log2) [5] | uncleaved DNA left (log2) [6] | uncleaved DNA left (log2) [7] | uncleaved DNA left (log2) [8] | uncleaved DNA left (log2) [9]
1 | TGCCTTA | 0.0247 | -0.0789 | 0.00434 | -0.637 | 0.0369 | -0.139 | -0.169 | -0.0861 | -0.0569
2 | GAATATG | 0.177 | 0.104 | -0.237 | -0.255 | 0.0754 | -0.752 | 0.115 | 0.132 | 0.0547
3 | GTAACCG | -0.0493 | 0.00981 | -0.683 | -1.13 | -0.0385 | -0.764 | -0.0313 | -0.0604 | -0.0436
4 | CGCCGCC | -0.138 | -0.0379 | -0.0742 | -0.133 | -0.102 | -0.361 | -0.128 | -0.147 | -0.0973
5 | GCCTTTC | -0.17 | -0.189 | 0.064 | 0.207 | -0.164 | -0.122 | -0.154 | -0.0933 | -0.267
6 | TAACCAT | -0.205 | -0.0186 | -2.82 | -3.16 | -0.0196 | -0.815 | -0.696 | 0.0407 | -0.569
7 | ACTAAAG | 0.114 | 0.078 | -0.67 | -0.199 | 0.061 | -1.02 | 0.336 | 0.153 | 0.0274
8 | CGGTTTC | 0.113 | -0.011 | 0.239 | 0.469 | -0.0583 | 0.594 | 0.0594 | 0.0252 | 0.0771
9 | CACTATA | -0.19 | -0.247 | -0.238 | -2.47 | 0.158 | -0.49 | -2.69 | 0.0441 | 0.0619
10 | ACCGGTG | 0.124 | -0.0355 | -0.273 | 0.175 | -0.026 | -0.389 | 0.145 | 0.0278 | -0.0971
11 | CGTTACG | 0.054 | 0.0516 | -0.746 | -0.338 | 0.0697 | -0.9 | 0.181 | 0.0953 | 0.0533
12 | CATTGCC | -0.0556 | -0.0612 | -0.602 | 0.59 | 0.152 | -0.194 | -0.237 | 0.186 | -0.0787
13 | CCAGCTG | -0.137 | -0.0258 | 0.228 | 1.28 | -0.0361 | 1.65 | 0.0693 | -0.24 | -0.0815
14 | CCGCGAC | 0.105 | -0.108 | -0.0814 | 0.00294 | 0.0248 | -0.213 | -0.083 | -0.12 | -0.0838
15 | GGATTCT | -0.406 | 0.019 | 0.411 | 0.878 | 0.0137 | 1.75 | -0.625 | 0.0159 | 0.155
16 | CCGCTTA | 0.0124 | -0.0345 | -0.0538 | -0.782 | -0.0185 | -0.341 | -0.02 | -0.0177 | 0.0474
17 | GCTCTTA | -0.0776 | -0.0132 | 0.144 | -0.105 | 0.0851 | 0.536 | -0.133 | 0.0404 | 0.0508
18 | CACTGCC | -0.125 | -0.145 | -0.392 | -0.33 | -0.0779 | -0.469 | -0.593 | -0.0716 | -0.152
19 | ACTATCG | -0.0593 | 0.000732 | -0.756 | 0.07 | -0.0472 | -0.792 | 0.0911 | -0.148 | -0.12
20 | GGATTAA | 0.108 | 0.142 | 0.629 | 1.21 | 0.0689 | 1.9 | 0.198 | 0.184 | 0.262
21 | CGAAAGG | -0.0178 | 0.0958 | 0.229 | 0.922 | 0.165 | 0.35 | 0.12 | 0.106 | 0.106
22 | TACGGTG | 0.133 | -0.0275 | -0.481 | -0.687 | -0.0575 | -0.897 | 0.0843 | 0.0602 | 0.0252
23 | AATACCT | -0.315 | -0.746 | -0.953 | -2.87 | -0.0116 | -0.416 | -2.95 | -0.17 | -0.171
24 | TGGTACG | -0.0806 | 0.0269 | -0.691 | -0.541 | -0.0254 | -0.954 | 0.0131 | -0.097 | -0.0734
25 | CCTATTC | -0.0719 | -0.029 | -0.0596 | -0.262 | -0.0261 | -0.971 | 0.0485 | 0.00308 | -0.0155
26 | AAACTAT | -0.000231 | -0.0868 | -0.451 | -2.38 | 0.0316 | -0.391 | -0.189 | -0.0132 | -0.13
27 | TGGTTCA | -0.0164 | 0.0567 | 0.3 | 0.0961 | -0.0851 | 0.807 | -0.126 | 0.0873 | 0.0934
28 | CTGGAGG | 0.128 | 0.0323 | 0.399 | 0.942 | 0.0261 | 0.722 | 0.0938 | 0.0101 | 0.0116
29 | GCGGAGT | -0.00375 | 0.0592 | 0.519 | 1.13 | 0.0337 | 1.38 | 0.192 | 0.0833 | 0.188
30 | ATACTAC | -2.64 | -0.101 | -0.684 | -2.75 | -0.0359 | -1.09 | -2.06 | -0.0399 | -0.172

Reference: the supplement of paper PMC7826260
